Test results from the GPR68 mutational scans of Howard et al. (2025).

B1: GPR68, Q15743 (parent)
chain: MGNITADNSSMSCTIDHTIHQTLAPVVYVTVLVVGFPANCLSLYFGYLQIKARNELGVYLCNLTVADLFYICSLPFWLQYVLQHDNWSHGDLSCQVCGILLYENIYISVGFLCCISVDRYLAVAHPFRFHQFRTLKAAVGVSVVIWAKELLTSIYFLMHEEVIEDENQHRVCFEHYPIQAWQRAINYYRFLVGFLFPICLLLASYQGILRAVRRSHGTQKSRKDQIQRLVLSTVVIFLACFLPYHVLLLVRSVWEASCDFAKGVFNAYHFSLLLTSFNCVADPVLYCFVSETTHRDLARLRGACLAFLTCSRTGRAREAYPLGAPEASGKSGAQGEEPELLTKLHPAFQTPNSPGSGGFPTGRLA

Legend:
[1] = variants of: B1; experiment: cAMP reporter score (Enrich2 score, wild type = 0); higher = more signal; HEK293T, FACS bins
[2] = variants of: B1; experiment: surface expression score (Enrich2 score, wild type = 0); higher = more signal; HEK293T, FACS bins

Row | Variant | cAMP reporter score ([1]; pH 5.5) | cAMP reporter score ([1]; pH 6) | cAMP reporter score ([1]; pH 6, modulator: ogerin) | cAMP reporter score ([1]; pH 6.5, modulator: ogerin) | surface expression score [2]
1 | MGNITADNSSMSCTIDHTIHQTLAPVVYVTVLVVGFPANCLSLYFGYLQIKARNELGVYLCNLTVADLFYICSLPFWLQYVLQHDNWSHGDLSCQVCGILLYENIYISVGFLCCISVDRYLAVAHPFRFHQFRTLKAAVGVSVVIWAKELLTSIYFLMHEEVIEDENQHRVCFEHYPIQAWQRAINYYRFLVGFLFPICLLLASYQGILRAVRRSHGTQKSRKDQIQRLVLSTVVIFLACFLPYHVLLLVRSVWEASCDFAKGVFNAYHFSLLLISFNCVADPVLYCFVSETTHRDLARLRGACLAFLTCSRTGRAREAYPLGAPEASGKSGAQGEEPELLTKLHPAFQTPNSPGSGGFPTGRLA [T275I] | -0.078 | -0.16 | -0.87 | -1.28 | -1.13
2 | MGNITADNSSMSCTIDHTIHQTLAPVVYVTVLVVGFPANCLSLYFGYLQIKARNELGVYLCNLTVADLFYICSLPFWLQYVLQHDNWSHGDLSCQVCGILLYENIYISVGFLCCISVDRYLAVAHPFRFHQFRTLKAAVGVSVVIWAKELLTSIYFLMHEEVIEDENQHRVCFEHYPIQAWQRAINYYRFLVGFLFPICLLLASYQGILRAVRRSHGTQKSRKDQIQRLVLSTVVIFLACFLPYHVLLLVRSVWEASCDFAKGVFNAYHFSLLLLSFNCVADPVLYCFVSETTHRDLARLRGACLAFLTCSRTGRAREAYPLGAPEASGKSGAQGEEPELLTKLHPAFQTPNSPGSGGFPTGRLA [T275L] | -0.214 | -0.725 | -0.474 | -0.478 | -0.369
3 | MGNITADNSSMSCTIDHTIHQTLAPVVYVTVLVVGFPANCLSLYFGYLQIKARNELGVYLCNLTVADLFYICSLPFWLQYVLQHDNWSHGDLSCQVCGILLYENIYISVGFLCCISVDRYLAVAHPFRFHQFRTLKAAVGVSVVIWAKELLTSIYFLMHEEVIEDENQHRVCFEHYPIQAWQRAINYYRFLVGFLFPICLLLASYQGILRAVRRSHGTQKSRKDQIQRLVLSTVVIFLACFLPYHVLLLVRSVWEASCDFAKGVFNAYHFSLLLMSFNCVADPVLYCFVSETTHRDLARLRGACLAFLTCSRTGRAREAYPLGAPEASGKSGAQGEEPELLTKLHPAFQTPNSPGSGGFPTGRLA [T275M] | -0.04 | -0.575 | -1.1 | -1.1 | 0.024
4 | MGNITADNSSMSCTIDHTIHQTLAPVVYVTVLVVGFPANCLSLYFGYLQIKARNELGVYLCNLTVADLFYICSLPFWLQYVLQHDNWSHGDLSCQVCGILLYENIYISVGFLCCISVDRYLAVAHPFRFHQFRTLKAAVGVSVVIWAKELLTSIYFLMHEEVIEDENQHRVCFEHYPIQAWQRAINYYRFLVGFLFPICLLLASYQGILRAVRRSHGTQKSRKDQIQRLVLSTVVIFLACFLPYHVLLLVRSVWEASCDFAKGVFNAYHFSLLLKSFNCVADPVLYCFVSETTHRDLARLRGACLAFLTCSRTGRAREAYPLGAPEASGKSGAQGEEPELLTKLHPAFQTPNSPGSGGFPTGRLA [T275K] | -1.91 | -0.987 | -2.21 | -1.75 | -2.96

Scores with a large standard error are left out. Not listed are two conditions whose scores span a narrow range. In variant names, del marks residues removed and ins residues inserted between the two positions. For some assays here: The concentration of ogerin is not given here.
